{
  "source": "a collection of fitness landscapes (doi:10.1016/j.celrep.2020.107928)",
  "parents": {"B1": {"name": "Caulobacter ParB omega fusion; a variant is named by its letters at X, in order, B8GW30 (parent)", "chain": "MESVVVGEPGMSEGRRGLGRGLSALLGEVDAAPAQAPGEQLGGSREAPIEILQRNPDQPRRTFREEDLEDLSNSIREKGVLQPILVRPSPDTAGEYQIVAGERAWRAAQRAGLKTVPIMVRELDDLAVLEIGIIENVQRADLNVLEEALSYKVLMEKFERTQENIAQTIGKSXSHVANXMRLLXLPDEVQSYLVSGELTAXHARAIAAAADPVALAKQIIEGGLSVRETEALARKAPNLSAGKSKGGRPPRVKDTDTQALESDLSSVLGLDVSIDHRGSTGTLTITYATLEQLDDLCNRLTRGI"}},
  "note": "The full ranking holds about 81,000 sequences; the median of “one-hybrid fitness for binding NBS DNA” is about -0.1, and the highest 2% start at about 0.36. Some of the results follow.",
  "data": [
    {"variants_of": "B1", "test": "one-hybrid fitness for binding NBS DNA (the Noc-binding site; scaled: cognate 1, non-cognate 0); higher = stronger binding", "details": "with NBS DNA site", "outline": "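On M9-minus-histidine containing 0.1 mM IPTG and 5 mM 3-AT, E. coli USO cells with a HIS3 reporter, site 19 bp from the promoter, grew 48 hours at 37°C to select Caulobacter ParB libraries randomised at four specificity codons. Plasmids from before and after were Illumina-sequenced, with three replicate libraries pooled and variants under 10 reads left out. Fitness is the log change in variant-to-wild-type read ratio, rescaled against cognate and non-cognate.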", "values": [
      {"variant": "PTHI", "one-hybrid fitness for binding NBS DNA": "≤ 0.2"},
      {"variant": "LSSP", "one-hybrid fitness for binding NBS DNA": "≤ 0.2"},
      {"variant": "GATF", "one-hybrid fitness for binding NBS DNA": "≤ 0.2"},
      {"variant": "HWII", "one-hybrid fitness for binding NBS DNA": "≤ 0.2"},
      {"variant": "LMDS", "one-hybrid fitness for binding NBS DNA": "≤ 0.2"},
      {"variant": "VQMF", "one-hybrid fitness for binding NBS DNA": "≤ 0.2"},
      {"variant": "KKQY", "one-hybrid fitness for binding NBS DNA": "≤ 0.2"},
      {"variant": "YPFW", "one-hybrid fitness for binding NBS DNA": "≤ 0.2"},
      {"variant": "YAIL", "one-hybrid fitness for binding NBS DNA": "≤ 0.2"},
      {"variant": "MMKM", "one-hybrid fitness for binding NBS DNA": "≤ 0.2"},
      {"variant": "GSKL", "one-hybrid fitness for binding NBS DNA": "≤ 0.2"},
      {"variant": "IYIR", "one-hybrid fitness for binding NBS DNA": "≤ 0.2"},
      {"variant": "CACK", "one-hybrid fitness for binding NBS DNA": "≤ 0.2"},
      {"variant": "PSYL", "one-hybrid fitness for binding NBS DNA": "≤ 0.2"},
      {"variant": "KIQT", "one-hybrid fitness for binding NBS DNA": "≤ 0.2"},
      {"variant": "VCTP", "one-hybrid fitness for binding NBS DNA": "≤ 0.2"},
      {"variant": "CKNR", "one-hybrid fitness for binding NBS DNA": "≤ 0.2"},
      {"variant": "TVQR", "one-hybrid fitness for binding NBS DNA": "≤ 0.2"},
      {"variant": "RQWE", "one-hybrid fitness for binding NBS DNA": "≤ 0.2"},
      {"variant": "RLRC", "one-hybrid fitness for binding NBS DNA": 0.348},
      {"variant": "KGWR", "one-hybrid fitness for binding NBS DNA": "≤ 0.2"},
      {"variant": "PWYT", "one-hybrid fitness for binding NBS DNA": "≤ 0.2"},
      {"variant": "KAPD", "one-hybrid fitness for binding NBS DNA": "≤ 0.2"},
      {"variant": "NDGT", "one-hybrid fitness for binding NBS DNA": "≤ 0.2"},
      {"variant": "AVMW", "one-hybrid fitness for binding NBS DNA": "≤ 0.2"},
      {"variant": "TYHT", "one-hybrid fitness for binding NBS DNA": "≤ 0.2"},
      {"variant": "RCPN", "one-hybrid fitness for binding NBS DNA": "≤ 0.2"},
      {"variant": "TYGS", "one-hybrid fitness for binding NBS DNA": "≤ 0.2"},
      {"variant": "TITF", "one-hybrid fitness for binding NBS DNA": "≤ 0.2"},
      {"variant": "HYTK", "one-hybrid fitness for binding NBS DNA": "≤ 0.2"},
      {"variant": "PLIS", "one-hybrid fitness for binding NBS DNA": "≤ 0.2"},
      {"variant": "RIWA", "one-hybrid fitness for binding NBS DNA": "≤ 0.2"},
      {"variant": "EPDY", "one-hybrid fitness for binding NBS DNA": "≤ 0.2"},
      {"variant": "VPLN", "one-hybrid fitness for binding NBS DNA": "≤ 0.2"},
      {"variant": "VMEC", "one-hybrid fitness for binding NBS DNA": "≤ 0.2"},
      {"variant": "EYGT", "one-hybrid fitness for binding NBS DNA": "≤ 0.2"},
      {"variant": "SNWF", "one-hybrid fitness for binding NBS DNA": "≤ 0.2"},
      {"variant": "YLSG", "one-hybrid fitness for binding NBS DNA": "≤ 0.2"},
      {"variant": "GRPS", "one-hybrid fitness for binding NBS DNA": "≤ 0.2"},
      {"variant": "WMDN", "one-hybrid fitness for binding NBS DNA": "≤ 0.2"},
      {"variant": "PYQM", "one-hybrid fitness for binding NBS DNA": "≤ 0.2"},
      {"variant": "RRKF", "one-hybrid fitness for binding NBS DNA": 0.484},
      {"variant": "IHSV", "one-hybrid fitness for binding NBS DNA": "≤ 0.2"},
      {"variant": "SCDN", "one-hybrid fitness for binding NBS DNA": "≤ 0.2"},
      {"variant": "GTKL", "one-hybrid fitness for binding NBS DNA": "≤ 0.2"},
      {"variant": "PQLQ", "one-hybrid fitness for binding NBS DNA": "≤ 0.2"},
      {"variant": "VPHW", "one-hybrid fitness for binding NBS DNA": "≤ 0.2"},
      {"variant": "IQQI", "one-hybrid fitness for binding NBS DNA": "≤ 0.2"},
      {"variant": "LPLP", "one-hybrid fitness for binding NBS DNA": "≤ 0.2"},
      {"variant": "QKTL", "one-hybrid fitness for binding NBS DNA": "≤ 0.2"},
      {"variant": "GGKA", "one-hybrid fitness for binding NBS DNA": "≤ 0.2"},
      {"variant": "NTDN", "one-hybrid fitness for binding NBS DNA": "≤ 0.2"},
      {"variant": "PHPC", "one-hybrid fitness for binding NBS DNA": "≤ 0.2"},
      {"variant": "KMCG", "one-hybrid fitness for binding NBS DNA": "≤ 0.2"},
      {"variant": "GGWD", "one-hybrid fitness for binding NBS DNA": "≤ 0.2"},
      {"variant": "AGMD", "one-hybrid fitness for binding NBS DNA": "≤ 0.2"},
      {"variant": "MEPD", "one-hybrid fitness for binding NBS DNA": "≤ 0.2"},
      {"variant": "FSDF", "one-hybrid fitness for binding NBS DNA": "≤ 0.2"},
      {"variant": "SAPN", "one-hybrid fitness for binding NBS DNA": "≤ 0.2"},
      {"variant": "YRPC", "one-hybrid fitness for binding NBS DNA": "≤ 0.2"},
      {"variant": "VVYR", "one-hybrid fitness for binding NBS DNA": "≤ 0.2"},
      {"variant": "AWQW", "one-hybrid fitness for binding NBS DNA": "≤ 0.2"},
      {"variant": "CTQM", "one-hybrid fitness for binding NBS DNA": "≤ 0.2"},
      {"variant": "PHHQ", "one-hybrid fitness for binding NBS DNA": "≤ 0.2"},
      {"variant": "TCII", "one-hybrid fitness for binding NBS DNA": "≤ 0.2"},
      {"variant": "RLDM", "one-hybrid fitness for binding NBS DNA": "≤ 0.2"},
      {"variant": "RQSY", "one-hybrid fitness for binding NBS DNA": "≤ 0.2"},
      {"variant": "TLGA", "one-hybrid fitness for binding NBS DNA": "≤ 0.2"},
      {"variant": "QPTN", "one-hybrid fitness for binding NBS DNA": "≤ 0.2"},
      {"variant": "RNRY", "one-hybrid fitness for binding NBS DNA": "≤ 0.2"},
      {"variant": "CRVA", "one-hybrid fitness for binding NBS DNA": "≤ 0.2"},
      {"variant": "EDKS", "one-hybrid fitness for binding NBS DNA": "≤ 0.2"},
      {"variant": "RGHD", "one-hybrid fitness for binding NBS DNA": "≤ 0.2"},
      {"variant": "QAPD", "one-hybrid fitness for binding NBS DNA": "≤ 0.2"},
      {"variant": "RMRN", "one-hybrid fitness for binding NBS DNA": 0.25},
      {"variant": "CMAS", "one-hybrid fitness for binding NBS DNA": "≤ 0.2"},
      {"variant": "GGPS", "one-hybrid fitness for binding NBS DNA": "≤ 0.2"},
      {"variant": "HTAM", "one-hybrid fitness for binding NBS DNA": "≤ 0.2"},
      {"variant": "CMTL", "one-hybrid fitness for binding NBS DNA": "≤ 0.2"},
      {"variant": "RSRR", "one-hybrid fitness for binding NBS DNA": 0.664},
      {"variant": "RLGE", "one-hybrid fitness for binding NBS DNA": "≤ 0.2"},
      {"variant": "HLMC", "one-hybrid fitness for binding NBS DNA": "≤ 0.2"},
      {"variant": "LFLF", "one-hybrid fitness for binding NBS DNA": "≤ 0.2"},
      {"variant": "SVPR", "one-hybrid fitness for binding NBS DNA": "≤ 0.2"},
      {"variant": "RYGY", "one-hybrid fitness for binding NBS DNA": "≤ 0.2"},
      {"variant": "RCHV", "one-hybrid fitness for binding NBS DNA": "≤ 0.2"},
      {"variant": "VNAY", "one-hybrid fitness for binding NBS DNA": "≤ 0.2"},
      {"variant": "PGVG", "one-hybrid fitness for binding NBS DNA": "≤ 0.2"},
      {"variant": "HTEV", "one-hybrid fitness for binding NBS DNA": "≤ 0.2"},
      {"variant": "QVRK", "one-hybrid fitness for binding NBS DNA": 0.212},
      {"variant": "MKSY", "one-hybrid fitness for binding NBS DNA": "≤ 0.2"},
      {"variant": "APNA", "one-hybrid fitness for binding NBS DNA": "≤ 0.2"},
      {"variant": "ISTD", "one-hybrid fitness for binding NBS DNA": "≤ 0.2"},
      {"variant": "VVIG", "one-hybrid fitness for binding NBS DNA": "≤ 0.2"},
      {"variant": "TWPT", "one-hybrid fitness for binding NBS DNA": "≤ 0.2"},
      {"variant": "MQLE", "one-hybrid fitness for binding NBS DNA": "≤ 0.2"},
      {"variant": "VRFI", "one-hybrid fitness for binding NBS DNA": "≤ 0.2"}
    ]}
  ]
}
